{
  "source": "patent US20230145835A1",
  "about": "“Modulators of Alpha-4-beta-7 Integrin and MAdCAM” (48HD Biopharma Inc., priority 2021, published 2023)",
  "key": {"rh-integrin α4β7/LPAM-1 [1]": {"target": "T1, rh-integrin α4β7/LPAM-1 (Homo sapiens, UniProt P13612+P26010)", "T1 sequence (P13612 34-977 limits assumed)": "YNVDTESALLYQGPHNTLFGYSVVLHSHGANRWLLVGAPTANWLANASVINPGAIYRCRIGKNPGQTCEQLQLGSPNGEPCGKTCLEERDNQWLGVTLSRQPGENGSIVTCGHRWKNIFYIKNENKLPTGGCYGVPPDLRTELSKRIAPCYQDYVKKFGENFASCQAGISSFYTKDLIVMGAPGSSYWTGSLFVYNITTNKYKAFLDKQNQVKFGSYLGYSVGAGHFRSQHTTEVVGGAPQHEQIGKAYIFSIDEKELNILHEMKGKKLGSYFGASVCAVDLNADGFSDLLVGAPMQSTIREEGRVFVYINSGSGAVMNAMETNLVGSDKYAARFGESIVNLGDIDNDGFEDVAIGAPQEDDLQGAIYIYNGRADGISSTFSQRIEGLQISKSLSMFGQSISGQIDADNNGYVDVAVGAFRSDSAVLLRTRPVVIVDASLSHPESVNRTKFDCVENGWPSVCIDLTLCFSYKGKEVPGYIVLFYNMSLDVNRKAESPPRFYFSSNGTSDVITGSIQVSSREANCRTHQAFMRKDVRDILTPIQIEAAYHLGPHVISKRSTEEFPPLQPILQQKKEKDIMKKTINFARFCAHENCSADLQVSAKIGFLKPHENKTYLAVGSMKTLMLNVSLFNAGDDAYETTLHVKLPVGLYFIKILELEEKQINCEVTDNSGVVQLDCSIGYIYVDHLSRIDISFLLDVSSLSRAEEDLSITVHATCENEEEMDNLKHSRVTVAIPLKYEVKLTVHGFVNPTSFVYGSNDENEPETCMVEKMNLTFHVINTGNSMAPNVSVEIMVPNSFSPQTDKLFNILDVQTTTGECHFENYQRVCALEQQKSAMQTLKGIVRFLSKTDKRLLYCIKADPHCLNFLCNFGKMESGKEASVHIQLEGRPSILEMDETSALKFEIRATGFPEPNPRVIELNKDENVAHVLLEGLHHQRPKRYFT", "T1 sequence (P26010 20-723 limits assumed)": "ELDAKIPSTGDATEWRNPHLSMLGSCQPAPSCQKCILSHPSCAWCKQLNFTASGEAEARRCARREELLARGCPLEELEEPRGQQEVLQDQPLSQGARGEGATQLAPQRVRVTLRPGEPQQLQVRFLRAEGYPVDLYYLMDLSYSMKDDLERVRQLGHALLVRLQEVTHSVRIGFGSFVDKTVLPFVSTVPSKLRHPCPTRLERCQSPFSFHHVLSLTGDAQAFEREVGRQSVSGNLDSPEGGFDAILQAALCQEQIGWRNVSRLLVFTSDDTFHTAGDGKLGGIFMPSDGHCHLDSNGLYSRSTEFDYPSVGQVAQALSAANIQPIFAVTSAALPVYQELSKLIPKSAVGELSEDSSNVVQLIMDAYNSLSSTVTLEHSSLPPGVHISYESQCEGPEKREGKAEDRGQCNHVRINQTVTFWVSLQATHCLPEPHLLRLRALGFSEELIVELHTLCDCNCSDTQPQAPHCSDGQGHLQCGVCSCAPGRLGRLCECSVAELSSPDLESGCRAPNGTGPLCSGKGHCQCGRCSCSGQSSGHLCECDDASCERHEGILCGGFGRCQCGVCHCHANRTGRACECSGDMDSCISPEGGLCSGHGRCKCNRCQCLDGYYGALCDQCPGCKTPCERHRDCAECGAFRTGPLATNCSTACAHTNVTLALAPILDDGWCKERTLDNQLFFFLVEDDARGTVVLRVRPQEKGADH", "experiment": "Competition Binding Assay (competition ELISA, Example 1)", "conditions": "8 μg/mL α4β7 coated, 1 μg/mL MAdCAM"}, "rh-integrin α4β7/LPAM-1 [2]": {"target": "T1, rh-integrin α4β7/LPAM-1", "experiment": "α4β7-MadCAM Competition ELISA (Example 4)", "assay_type": "binding", "conditions": "4 μg/mL α4β7 coated, MAdCAM and peptide mixture, 28° C.", "protocol": "After washing with wash buffer, 200 μL assay buffer was added to each well and incubated for one hour at 28° C. After another wash with wash buffer, 100 μL of a MAdCAM and peptide mixture in assay buffer was added to each well and incubated for one hour at 28° C., followed by washing with wash buffer."}},
  "note": "Not every detail of the peptide structures is certain; ends, links or a residue may be inferred. For some assays here: At least one structure is not confirmed: it was looked up by name or label, or the drawing left a doubt. Numbered stars: 1 amine (or outer) side, 2 acyl side, 3 side chain; on linkers, the order of the positions; unused ones are H or OH. Bridge positions count the residues as written; N and C are the ends. Square brackets hold non-standard residues; d marks the D form. Peptide text beside a SMILES is read from it. X1 = O=C(C=NOCCCCCCOc1cc(C[*:2])cc(C[*:3])c1)[*:1]; X14 = O=C(c1ccccc1C[*:2])[*:1]; Pen = CC(C)(S)[C@H](N)C(=O)O",
  "data": [
    {"smiles": "CSCC[C@@H]1NC(=O)C=NOCCCCCCOc2cc3cc(c2)CSC[C@H](NC1=O)C(=O)N1CCC[C@H]1C(=O)N[C@@H](CC(C)C)C(=O)N[C@@H](Cc1ccc(O)cc1)C(=O)N[C@@H](CCCCN)C(=O)N[C@@H](C(C)C)C(=O)N[C@@H](Cc1c[nH]cn1)C(=O)N[C@H](C(=O)O)CSC3", "note": "[SEQ ID NO: 8] (MCPLYKVHC-OH; linker N-2-9 via X1; C-terminus assumed)", "values": [
      {"measurement": "IC50", "setting": "rh-integrin α4β7/LPAM-1 [1]", "result": 151, "unit": "µM"},
      {"measurement": "IC50", "setting": "rh-integrin α4β7/LPAM-1 [2]", "result": 151, "unit": "µM"}
    ]},
    {"smiles": "CC[C@H](C)[C@@H]1NC(=O)[C@H](C(C)C)NC(=O)[C@H](CC(=O)O)NC(=O)[C@H](CC(C)C)NC(=O)[C@H](CCSC)NC(=O)[C@@H]2CSCc3cc(cc(c3)OCCCCCCON=CC(=O)N[C@@H](C)C(=O)N2)CSC[C@@H](C(=O)O)NC(=O)[C@H](CO)NC1=O", "note": "[SEQ ID NO: 11] (ACMLDVISC-OH; linker N-2-9 via X1; C-terminus assumed)", "values": [
      {"measurement": "IC50", "setting": "rh-integrin α4β7/LPAM-1 [1]", "result": 66.6, "unit": "µM"},
      {"measurement": "IC50", "setting": "rh-integrin α4β7/LPAM-1 [2]", "result": 66.6, "unit": "µM"}
    ]},
    {"smiles": "CSCC[C@@H]1NC(=O)[C@@H]2CSCc3cc(cc(c3)OCCCCCCON=CC(=O)NCC(=O)N2)CSC[C@@H](C(=O)O)NC(=O)[C@H](Cc2ccccc2)NC(=O)[C@H](C)NC(=O)[C@H](Cc2ccccc2)NC(=O)[C@H](CC(=O)O)NC(=O)[C@H](CC(=O)O)NC1=O", "note": "[SEQ ID NO: 12] (GCMDDFAFC-OH; linker N-2-9 via X1; C-terminus assumed)", "values": [
      {"measurement": "IC50", "setting": "rh-integrin α4β7/LPAM-1 [1]", "result": 59.1, "unit": "µM"},
      {"measurement": "IC50", "setting": "rh-integrin α4β7/LPAM-1 [2]", "result": 59.1, "unit": "µM"}
    ]},
    {"smiles": "C[C@@H](O)[C@@H]1NC(=O)[C@H](CC(=O)O)NC(=O)[C@@H]2CCCN2C(=O)[C@H](Cc2ccc(O)cc2)NC(=O)[C@@H]2CSCc3cc(cc(c3)OCCCCCCON=CC(=O)N[C@@H](CC(=O)O)C(=O)N2)CSC[C@@H](C(=O)O)NC(=O)[C@H](Cc2c[nH]cn2)NC(=O)[C@H](Cc2ccc(O)cc2)NC1=O", "note": "[SEQ ID NO: 16] (DCYPDTYHC-OH; linker N-2-9 via X1; C-terminus assumed)", "values": [
      {"measurement": "IC50", "setting": "rh-integrin α4β7/LPAM-1 [1]", "result": 89.9, "unit": "µM"},
      {"measurement": "IC50", "setting": "rh-integrin α4β7/LPAM-1 [2]", "result": 72.5, "unit": "µM"}
    ]},
    {"smiles": "CC(C)C[C@@H]1NC(=O)[C@@H]2CCCN2C(=O)[C@@H]2CSCc3cc(cc(c3)OCCCCCCON=CC(=O)N[C@@H](CCCCN)C(=O)N2)CSC[C@@H](C(=O)O)NC(=O)[C@H](CO)NC(=O)[C@@H]2CCCN2C(=O)[C@H](C(C)C)NC(=O)[C@H](CC(=O)O)NC1=O", "note": "[SEQ ID NO: 26] (KCPLDVPSC-OH; linker N-2-9 via X1; C-terminus assumed)", "values": [
      {"measurement": "IC50", "setting": "rh-integrin α4β7/LPAM-1 [1]", "result": 0.631, "unit": "µM"},
      {"measurement": "IC50", "setting": "rh-integrin α4β7/LPAM-1 [2]", "result": 0.723, "unit": "µM"}
    ]},
    {"smiles": "CC(C)C[C@@H]1NC(=O)[C@H]([C@@H](C)O)NC(=O)[C@H](CC(=O)O)NC(=O)[C@H](CO)NC(=O)[C@H](CCCNC(=N)N)NC(=O)c2ccccc2CSC(C)(C)[C@@H](C(=O)N[C@@H](Cc2c[nH]c3ccccc23)C(=O)N[C@@H](CCC(=O)O)C(N)=O)NC1=O", "note": "[SEQ ID NO: 65] (RSDTL[Pen]WE-NH2; linker N-6 via X14; C-terminus assumed)", "values": [
      {"measurement": "IC50", "setting": "rh-integrin α4β7/LPAM-1 [1]", "result": 0.136, "unit": "µM"}
    ]},
    {"smiles": "CC(C)C[C@@H]1NC(=O)[C@H]([C@@H](C)O)NC(=O)[C@H](CC(=O)O)NC(=O)[C@H](CO)NC(=O)[C@H](CCCNC(=N)N)NC(=O)[C@@H](N)CSSC[C@@H](C(=O)NCC(=O)N[C@@H](CCC(=O)O)C(=O)O)NC1=O", "note": "[SEQ ID NO: 66] (H-CRSDTLCGE-OH; disulfide 1-7; N-terminus and C-terminus assumed)", "values": [
      {"measurement": "IC50", "setting": "rh-integrin α4β7/LPAM-1 [1]", "result": 0.164, "unit": "µM"}
    ]},
    {"smiles": "CC(C)C[C@@H]1NC(=O)[C@H]([C@@H](C)O)NC(=O)[C@H](CC(=O)O)NC(=O)[C@H](CO)NC(=O)[C@H](CCCNC(=N)N)NC(=O)[C@@H](N)CSSC[C@@H](C(=O)O)NC1=O", "note": "[SEQ ID NO: 67] (H-CRSDTLC-OH; disulfide 1-7; N-terminus and C-terminus assumed)", "values": [
      {"measurement": "IC50", "setting": "rh-integrin α4β7/LPAM-1 [1]", "result": 0.128, "unit": "µM"}
    ]},
    {"smiles": "CC(=O)N[C@H]1CSSC[C@@H](C(=O)NCC(=O)N[C@@H](CCC(=O)O)C(=O)O)NC(=O)[C@H](CC(C)C)NC(=O)[C@H]([C@@H](C)O)NC(=O)[C@H](CC(=O)O)NC(=O)[C@H](CO)NC(=O)[C@H](CCCNC(=N)N)NC1=O", "note": "[SEQ ID NO: 151] (Ac-CRSDTLCGE-OH; disulfide 1-7; C-terminus assumed)", "values": [
      {"measurement": "IC50", "setting": "rh-integrin α4β7/LPAM-1 [2]", "result": 0.136, "unit": "µM"}
    ]}
  ]
}
